Reference: PubChem BioAssay AID504466 (National Center for Advancing Translational Sciences (NCATS), 2011)
Screen size: about 330,000 compounds; about 4,200 (1.3%) were called active. Inconclusive means that the source gave no clear call. Such entries were picked first, then a sample of the others. The call rests on the fitted dose curve; in most records, active means well fitted activation curve with a large enough effect; inconclusive means small, poorly fitted or top-dose-only effect; inactive means no such curve, though single readings can be large or run the other way. Potencies beside an inconclusive call are fits to weak or partial responses and may not hold up.

Assay: qHTS screen for small molecules that induce genotoxicity in human embryonic kidney (HEK293T) cells expressing luciferase-tagged ELG1; further: nearly all actives have a fitted effect of over 60% in size
Settings: HEK293T ELG1-luciferase reporter, luminescence, 16 h; series mostly up to 46 µM
In short: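 DMSO vehicle served as control against compound-treated ELG1-luciferase HEK293T cells; exposure lasted 16 hr at 37 °C and 5% CO2, followed by ONE-Glo luminescence detection after 30 min.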
Potency means the concentration at half of the fitted maximal effect; tags describe the fitted curve by direction and shape.

| Structure (SMILES) | Potency |
| --- | --- |
| O=C(COc1ccc(Br)cc1)c1ccc2c(c1)CCCC2 | inactive |
| Cc1ccc(CC(=O)c2ccc(Cl)cc2)cc1 | inconclusive: 23.1 µM [activator, partial curve, poor fit] |
| O=[N+]([O-])c1ccc(NC(=S)N/C(=N/CS(=O)(=O)c2ccccc2)c2ccccc2)cc1 | inconclusive: 16.4 µM [activator, partial curve, poor fit] |
| COc1ccc(Cl)cc1NS(=O)(=O)c1cccc(C(=O)NCCCN2CCCC2=O)c1 | inactive |
| O=C(NCCSc1ccccc1)c1ccc(CN2CCOCC2)cc1 | inconclusive: 2.59 µM [activator, partial curve, poor fit] |
| COc1ccccc1NC(=O)c1ccc(NC(=O)CN2CCCC2)cc1 | inactive |
| O=C(NC1=NCCS1)c1ccc(Cl)c(Cl)c1 | inconclusive: 3.66 µM [activator, single point] |
| COc1ccc(/C=N/NC(=S)Nc2ccccc2)cc1 | inconclusive: 6.51 µM [activator, single point] |
| O=C1c2cccc3cc(Br)cc(c23)C(=O)N1Nc1ccc(Br)cc1 | inconclusive: 18.4 µM [activator, partial curve, poor fit] |
| CCOc1ccc(OCc2cccc(C(=O)N3CCCCCC3)c2)cc1 | inconclusive: 0.116 µM [activator, full curve] |
| CC1CCCN(C(=O)CCc2nnc(-c3ccc4c(c3)OCO4)o2)C1 (stereo not given) | inconclusive: 20.6 µM [activator, partial curve] |
| COc1ccc(/C=C2\SC(N)=NC2=O)cc1Br | inactive |
| CCNc1nc(-c2cc3ccccc3o2)cs1 | inconclusive: 1.46 µM [activator, full curve] |
| CSCSC1=C(C#N)C(c2ccc(Cl)cc2)C(C(C)=O)=C(C)N1 (stereo not given) | inconclusive: 29.1 µM [activator, single point] |
| O=C(c1cc(COc2ccc(F)cc2Cl)on1)N1CC2C[C@@H]3CC1C[C@H](C2)C3 | active: 9.2 µM |
| CN(C(=S)Oc1ccc(C(=O)Nc2ccccc2)cc1)c1ccccc1 | inactive |
| O=C1C(Cl)=C(N2CCOCC2)C(=O)N1CCc1ccccc1 | inconclusive: 5.17 µM [activator, partial curve, poor fit] |
| COc1ccc(-n2c(=S)[nH]c3cc(C(=O)NC4CCCCC4)ccc3c2=O)c(OC)c1 | inconclusive: 1.64 µM [activator, full curve] |
| COc1ccc(CNc2nc3ccccc3n2C)c(OC)c1 | inconclusive: 4.61 µM [activator, partial curve] |
| O=C(/C=C/Nc1ccccc1)c1ccc(Oc2ncccn2)cc1 | inconclusive: 9.2 µM [activator, partial curve] |
| CCN(CC)CCNC(=S)Nc1ccc(Cl)cc1 | inactive |
| CCCCC1(Cc2cccc([N+](=O)[O-])c2)C(=O)N(c2ccccc2)N(c2ccccc2)C1=O | inconclusive: 29.1 µM [activator, single point] |
| CN1C(=O)/C(=C\C=C2/CCCN2C)N(C)C1=S | inconclusive: 23.1 µM [activator, partial curve, poor fit] |
| O=c1c(/C=N/Nc2ccccc2)c(Sc2nnnn2-c2ccccc2)nc2ccccn12 | inconclusive: 3.16 µM [activator, partial curve, poor fit] |
| CCOC(=O)N1CCN(C(=O)/C(=C/c2cccs2)NC(=O)c2ccc(OC)c(OC)c2)CC1 | inactive |

| Structure (SMILES) | Potency |
| --- | --- |
| COc1ccc2[nH]c3c(c2c1)CCn1c-3nc2sc(C(=O)Nc3ccccc3)c(C)c2c1=O | inconclusive: 18.4 µM [activator, single point] |
| COC(=O)N1C(=O)[C@@](c2ccc(OC)cc2)(C(C)C)N1C(=O)OC | inconclusive: 20.6 µM [activator, partial curve, poor fit] |
| CCn1ccc(C(=O)Nc2ccc3c(c2)CCC3)n1 | inconclusive: 1.16 µM [activator, partial curve, poor fit] |
| Cc1cccc(-n2ncc3c(Nc4ccc(F)cc4)ncnc32)c1 | active: 14.6 µM |
| Cc1ccc(-c2cnn(-c3cccc([N+](=O)[O-])c3)c2N)cc1 | inconclusive: 7.31 µM [activator, partial curve] |
| CCOc1cc(N2CCOCC2)c(OCC)cc1NC(=O)CN1C(=O)N(C)C2(CCCCC2)C1=O | inactive |
| c1ccc(-c2nc(-c3ccco3)cs2)nc1 | inconclusive: 23.1 µM [activator, partial curve] |
| Cc1ccc(-c2csc(NC(=O)c3ccno3)n2)cc1 | inconclusive: 20.6 µM [activator, single point] |
| N#Cc1c(/N=C/c2cccs2)sc2c1CCCCC2 | active: 0.517 µM |
| COc1ccc(NC(=O)C(=O)c2cn(CC(=O)N3CCCC3)c3ccccc23)cc1 | inconclusive: 9.2 µM [activator, partial curve] |
| COc1cc(OC)c2c(-c3cccc(-c4ccc(C(C)=O)cc4)c3)cc(=O)oc2c1 | inconclusive: 9.2 µM [activator, partial curve] |
| O=C(O)c1ccc2oc(=O)c(S(=O)(=O)c3ccc(F)cc3)cc2c1 | inactive |
| CCOC(CNC(=O)c1ccc2nc(N3CCC(C)CC3)sc2c1)OCC | inconclusive: 1.03 µM [activator, partial curve] |
| COCCN(CCOC)c1nc(-c2ccccc2)nc2ccccc12 | inactive |
| CC(=O)c1cc(C(=O)Nc2ccc(C(=O)O)cc2)oc1C | inactive |
| COC(=O)[C@@]1(Cc2ccccc2)[C@H]2C(=O)N(C)C(=O)[C@H]2[C@H]2CN=C(SCc3ccccc3)N21 | inactive |
| COc1ccc(S(=O)(=O)N2CCCCCC2)cc1C(=O)N1CCCCC1 | inconclusive: 23.1 µM [activator, partial curve, poor fit] |
| c1ccc(COc2ccc(OCCOCCn3cncn3)cc2)cc1 | active: 5.17 µM |
| O=C(COc1ccccc1)Nc1ccccc1Cl | inconclusive: 29.1 µM [activator, single point] |
| Cc1cc(C(=O)COC(=O)c2ccco2)c(C)n1Cc1ccco1 | active: 2.59 µM |
| O=C(OCc1nc2ccccc2[n+]([O-])c1C(=O)c1ccccc1)c1cccs1 | inactive |
| OCCc1ccc(O)c(-n2nc3ccccc3n2)c1 | inconclusive: 16.4 µM [activator, partial curve, poor fit] |
| CCCSc1nn2c(=O)c3ccccc3nc2s1 | active: 2.91 µM |
| CCn1nc(NC(=O)Cc2ccc(OC)cc2)c2cc3cc(C)ccc3nc21 | inconclusive: 32.6 µM [activator, partial curve, poor fit] |
| CC(C)CCNC(=O)c1ccc(NC(=O)C2=CSCCO2)cc1 | inconclusive: 11.6 µM [activator, partial curve, poor fit] |

| Structure (SMILES) | Potency |
| --- | --- |
| COc1ccc(-n2c(C)nc3c(cnn3-c3ccc(Cl)cc3)c2=O)cc1 | inactive |
| Clc1ccc(Nc2nc(C3CC3)cs2)cc1 | active: 6.51 µM |
| O=C(/C=C/c1ccc(-c2ccccc2)o1)c1ccccc1 | inconclusive: 20.6 µM [activator, partial curve, poor fit] |
| COc1ccc(-c2nnc(NC(=O)C3CC3)o2)cc1 | inconclusive: 13 µM [activator, partial curve, poor fit] |
| Cc1ccc(S(=O)(=O)N2CCOCC2)cc1NC(=O)CNC1CCCC1 | inactive |
| CC1CCN(C(=O)CSc2nc(=O)n3ccccc3n2)CC1 | inactive |
| CCCSc1nnc(CNS(=O)(=O)c2ccc(C)cc2)n1C | inactive |
| Cc1ccc(CN2CCN(CC(C)C)C(CCO)C2)s1 (stereo not given) | inconclusive: 23.1 µM [activator, single point] |
| COC(=O)C1CCCCN1C(=O)c1ccc2oc(C(C)C)nc2c1 (stereo not given) | inactive |
| Cn1c(O)c(N=Nc2ccccc2)c2ccccc21 | inactive |
| COc1ccc(-c2cnn3c(N)c(S(=O)(=O)C(C)(C)C)cnc23)cc1 | inactive |
| COc1ccc(NS(=O)(=O)c2ccc(NS(=O)(=O)c3cccs3)cc2)cc1 | inactive |
| CCOc1ccc(N(CC(=O)NCc2ccc(OC)cc2)S(C)(=O)=O)cc1 | inactive |
| CN(C)c1cccc(C(=O)NC2CCCCCC2)c1 | active: 18.4 µM |
| Cn1c(=O)c2c(ncn2CC2OCCO2)n(C)c1=O | inactive |
| O=C(NCc1cccs1)c1csc2ccccc12 | inconclusive: 23.1 µM [activator, single point] |
| CCCc1nn(C)c(C(=O)Nc2cccc(C)c2)c1Cl | inconclusive: 13 µM [activator, partial curve, poor fit] |
| O=C(O)c1nn(-c2ccccc2-c2n[nH]c(=O)[nH]c2=O)c(=O)[nH]c1=O | inactive |
| Cc1cccc(C)c1NC(=O)COc1ccc2c(C)c(Cc3ccccc3)c(=O)oc2c1C | inconclusive: 20.6 µM [activator, partial curve, poor fit] |
| Cc1cccc(C(=O)NC(=S)N2CCN(C(=S)NC(=O)c3cccc(C)c3)CC2)c1 | inactive |
| CC(C)C(=O)OCC(=O)Nc1ccc(N=Nc2ccccc2)cc1 | active: 20.6 µM |
| N#Cc1ccc(S(=O)(=O)N2CCC(C(=O)N3CCN(Cc4ccc5c(c4)OCO5)CC3)CC2)cc1 | inactive |
| Cc1ccc(N/C=C/C(=O)c2cccs2)cc1C | inconclusive: 0.366 µM [activator, full curve] |
| COc1cc(C(=O)Oc2ccc(/C=N/NC(=O)c3ccncc3)cc2)cc(OC)c1OC | inactive |
| O=C(NCc1ccco1)c1sc2ccccc2c1Cl | inconclusive: 32.6 µM [activator, partial curve, poor fit] |
